{
  "source": "PubChem BioAssay AID588501",
  "about": "(NMMLSC, 2011)",
  "note": "The whole screen tested about 360,000 compounds, of which about 420 (0.12%) were called active. This list was built around the results that the source calls inconclusive (neither active nor inactive); the mix of calls is not that of the screen. Rule as the data show it: active = inhibition above about 30%; inconclusive = no clear call, values can overlap the other calls; inactive = below that.",
  "data": [
    {"target": "Lethal factor (Bacillus anthracis) (UniProt P15917)", "sequence (P15917 whole entry, looked up)": "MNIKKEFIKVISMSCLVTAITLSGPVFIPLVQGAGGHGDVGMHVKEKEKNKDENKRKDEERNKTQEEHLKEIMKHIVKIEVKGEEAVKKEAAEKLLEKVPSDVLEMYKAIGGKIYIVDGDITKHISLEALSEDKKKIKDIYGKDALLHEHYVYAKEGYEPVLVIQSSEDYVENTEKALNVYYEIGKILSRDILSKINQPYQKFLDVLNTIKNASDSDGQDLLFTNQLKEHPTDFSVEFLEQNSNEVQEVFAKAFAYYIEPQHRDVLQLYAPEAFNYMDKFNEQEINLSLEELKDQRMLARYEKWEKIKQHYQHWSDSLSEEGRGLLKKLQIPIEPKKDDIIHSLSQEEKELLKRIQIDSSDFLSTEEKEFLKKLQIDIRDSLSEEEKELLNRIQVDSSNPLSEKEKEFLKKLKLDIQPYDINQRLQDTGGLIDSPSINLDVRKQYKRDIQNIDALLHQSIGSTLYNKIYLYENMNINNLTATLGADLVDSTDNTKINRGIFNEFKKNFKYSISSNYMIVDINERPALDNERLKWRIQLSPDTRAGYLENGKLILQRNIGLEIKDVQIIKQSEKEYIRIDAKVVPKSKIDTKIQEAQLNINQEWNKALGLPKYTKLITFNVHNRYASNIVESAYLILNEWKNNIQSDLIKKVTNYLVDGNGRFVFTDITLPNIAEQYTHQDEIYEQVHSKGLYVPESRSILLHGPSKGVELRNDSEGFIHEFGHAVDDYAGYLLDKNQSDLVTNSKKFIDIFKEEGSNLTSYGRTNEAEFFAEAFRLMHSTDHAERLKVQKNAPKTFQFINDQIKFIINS", "assay": "anthrax lethal factor cleavage blockers – biochemical, multiplex microsphere, MLPCN library, primary screen (AID 588501); also: plate controls were buffer without enzyme for full effect and enzyme alone for no effect", "conditions": "multiplex microsphere protease cleavage assay, LF; at 10 µM; active compounds read high", "values": [
      {"smiles": "COC(OC)C1Nc2ccccc2C(=O)N1c1ccc(F)cc1", "note": "(stereo not given)", "inhibition": "inconclusive: -50.4%"},
      {"smiles": "CCc1ccc(OCC(=O)Nc2ccc(S(=O)(=O)N3CCOCC3)cc2)cc1", "inhibition": "inconclusive: -1%"},
      {"smiles": "Cc1nc2c(C)cccc2c2c1CCN2c1ccccc1F", "inhibition": "active: 34.9%"},
      {"smiles": "C/C(=N\\S(=O)(=O)c1ccc(C)cc1)N1CCN(S(=O)(=O)c2ccccc2)C1", "inhibition": "inconclusive: -16.3%"},
      {"smiles": "COc1ccccc1NS(=O)(=O)c1ccc(C(=O)NCCCN2CCOCC2)cc1", "inhibition": "inconclusive: 3%"},
      {"smiles": "O=C(OC1CCCCC1=O)c1ccc(F)c(S(=O)(=O)N2CCOCC2)c1", "note": "(stereo not given)", "inhibition": "inconclusive: -8%"},
      {"smiles": "CC[n+]1c(/C=C/C=C/N(C(C)=O)c2ccccc2)sc2ccccc21", "inhibition": "inconclusive: -17.7%"},
      {"smiles": "Cc1onc(-c2ccccc2)c1C(=O)OCC(=O)N(C)c1c(N)n(Cc2ccccc2)c(=O)[nH]c1=O", "inhibition": "inconclusive: -5.2%"},
      {"smiles": "O=C(N(Cc1ccccc1)c1ccccn1)C12CC3CC(CC(C3)C1)C2", "inhibition": "inconclusive: 42%"},
      {"smiles": "CN1C(=CC=C2C=C(I)C(=O)C(I)=C2)C(C)(C)c2ccccc21", "inhibition": "active: 55.1%"},
      {"smiles": "CC(=O)Nc1ccc(SCc2c(C)noc2C)cc1", "inhibition": "active: 29.7%"},
      {"smiles": "Cn1ccc2c(-c3cncc4ccccc34)cc3c(c21)C1CCC3C1", "note": "(stereo not given)", "inhibition": "active: 29.6%"},
      {"smiles": "CCOC(=O)CN1C(=O)C(C)(C)Oc2ccc(C(=O)NC(C)(C)CC)cc21", "inhibition": "inconclusive: 0.3%"},
      {"smiles": "Cc1cc(O)cc2c1C1CCC3(C)C(O)CCC3C1C=C2", "note": "(stereo not given)", "inhibition": "inactive: 2.8%"},
      {"smiles": "c1ccc(-c2cn3nc(-c4ccccc4)c(-c4ccccc4)nc3n2)cc1", "inhibition": "active: 45.9%"},
      {"smiles": "O=C(Oc1cccc(NC(=O)c2ccco2)c1)c1cccc(S(=O)(=O)N2CCCC2)c1", "inhibition": "inconclusive: -4.2%"},
      {"smiles": "O=S1(=O)N[C@H](Cc2ccccc2)COc2cccc(N3CCC[C@@H]3CO)c21", "inhibition": "inactive: -11.6%"},
      {"smiles": "COc1ccccc1/C=C/C=N/NC(=O)c1ccco1", "inhibition": "inconclusive: -12%"},
      {"smiles": "CCOC(=O)N1CCN(S(=O)(=O)CCNC(=O)c2cccc(OC)c2)CC1", "inhibition": "inconclusive: -1.7%"},
      {"smiles": "Cc1nn(-c2ccccc2)c(C)c1/C=N/n1c(-c2ccccc2Br)n[nH]c1=S", "inhibition": "inactive: -8.4%"},
      {"smiles": "CCNC(=O)NCCc1c[nH]c2ccc(Cl)cc12", "inhibition": "inconclusive: -31.8%"},
      {"smiles": "CC(=O)c1c(N2CCN(C)CC2)[nH]c(-c2ccccc2)nc1=S", "inhibition": "inconclusive: -1.5%"},
      {"smiles": "CC(=O)N1CCOc2ccc(S(=O)(=O)N(C)c3ccc(C)cc3)cc21", "inhibition": "inactive: -5.2%"},
      {"smiles": "Cc1c(C(=O)Nc2nccs2)sc2nc(-c3cccs3)cc(C(F)(F)F)c12", "inhibition": "active: 37.4%"},
      {"smiles": "O=P(c1ccccc1)(c1nc2ccccc2s1)N1CCOCC1", "note": "(stereo not given)", "inhibition": "inconclusive: 5.3%"},
      {"smiles": "O=[N+]([O-])c1ccc(Sc2cccc3cccnc23)c2cccnc12", "inhibition": "active: 30.4%"},
      {"smiles": "Cn1cc(C2N3CC4(C)CN2CC(C)(C3)C4=O)c2ccccc21", "note": "(stereo not given)", "inhibition": "inactive: -5.4%"},
      {"smiles": "COc1cc(C(=O)Oc2ccccc2)ccc1OCc1c(C)noc1C", "inhibition": "inactive: 1.1%"},
      {"smiles": "Nc1c(C(=O)OCC2CCCO2)c2nc3ccccc3nc2n1Cc1cccs1", "note": "(stereo not given)", "inhibition": "inactive: -0.8%"},
      {"smiles": "COC(=O)c1ccc(COC(=O)c2ccc(-n3cnnn3)cc2)o1", "inhibition": "inconclusive: -20%"},
      {"smiles": "COC(=O)c1ccc(C(=O)OC)c(NC(=O)Oc2ccccc2)c1", "inhibition": "inactive: 0%"},
      {"smiles": "O=C1C(Br)=Cc2cccc3cccc1c23", "inhibition": "active: 29.9%"},
      {"smiles": "CC1(C)CC(=O)C(C=Nc2ccc3c(c2)OCO3)=C(O)C1", "inhibition": "inactive: -9.4%"},
      {"smiles": "Cn1c(CN2CCCC2)c(C#N)c2ccccc21", "inhibition": "inactive: -3%"},
      {"smiles": "CCCNC(=O)CN1C(=O)c2ccccc2Sc2ncccc21", "inhibition": "active: 29.6%"},
      {"smiles": "Cc1nc2cc(-c3cccc(F)c3)nn2c(C)c1CCC(=O)N1CCC2(CC1)OCCO2", "inhibition": "inconclusive: -10.2%"},
      {"smiles": "Cc1ccc(SCC(=O)OCC(=O)NC2CCCCCCC2)cc1", "inhibition": "inconclusive: -0.9%"},
      {"smiles": "CCOC(=O)c1ccc(NC(=O)CCc2c(C)nc3ncnn3c2C)cc1", "inhibition": "inconclusive: -33.7%"},
      {"smiles": "COc1ccc(S(=O)(=O)N2CCN(C(=O)c3ccc(=O)[nH]n3)CC2)cc1OC", "inhibition": "inactive: 2.1%"},
      {"smiles": "Cc1c(C)c2ccc(OCc3ccc(C(=O)O)o3)c(C)c2oc1=O", "inhibition": "inconclusive: -27.9%"},
      {"smiles": "Cc1cc(-c2nnc(SCC(=O)Nc3ccccc3)n2C)no1", "inhibition": "active: 31.8%"},
      {"smiles": "COc1cc(OC)cc(C(=O)N2CCCC(c3nc(-c4ccc(C)o4)no3)C2)c1", "note": "(stereo not given)", "inhibition": "inactive: -4.8%"},
      {"smiles": "Cc1ccc(-c2cc(C(=O)Nc3ccncc3)c3ccccc3n2)cc1", "inhibition": "inconclusive: -3%"},
      {"smiles": "O=C(Cc1ccccc1[N+](=O)[O-])NNC(=O)c1ccncc1", "inhibition": "inconclusive: -0.7%"},
      {"smiles": "Cc1ccc(/C=N/NC(=O)c2ccncc2)s1", "inhibition": "inconclusive: -18.4%"},
      {"smiles": "C=CCn1c(O)c(C(CC)=Nc2ccccc2NC(C)=O)c(=O)[nH]c1=O", "inhibition": "inactive: 4.6%"},
      {"smiles": "CCCNC(=O)Cn1c(=O)/c(=C/c2ccc(-c3ccc([N+](=O)[O-])cc3)o2)s/c1=C\\C(=O)C(C)(C)C", "inhibition": "active: 33.1%"},
      {"smiles": "CN(C)C=Nc1ncc2c3ccccc3n(CCN(C)C)c2c1C#N", "inhibition": "inactive: -2.5%"},
      {"smiles": "CCc1cccc(NC(=O)CSc2nc(C)cs2)c1", "inhibition": "inactive: -7%"},
      {"smiles": "COc1cc(Cl)c(C)cc1NC(=O)COC(=O)c1ccc(CN2CCCC2=O)cc1", "inhibition": "inconclusive: 7.2%"},
      {"smiles": "CCC(/C=C1\\Sc2ccc(OC)cc2N1CC)=C\\c1sc2ccc(OC)cc2[n+]1CCCS(=O)(=O)[O-]", "inhibition": "active: 48%"},
      {"smiles": "CNC(=O)C1CC(=O)N/C(=N/N=C(\\C)c2cccs2)S1", "note": "(stereo not given)", "inhibition": "inactive: -1.4%"},
      {"smiles": "c1csc(-c2nc3nc4ccccc4nc3n2Cc2ccc3c(c2)OCO3)c1", "inhibition": "active: 34.4%"},
      {"smiles": "O=C1/C(=C\\c2ccco2)SC(=S)N1Cc1ccccc1", "inhibition": "active: 33.7%"},
      {"smiles": "CC(OC(=O)CCN1C(=O)C2CC=CCC2C1=O)C(=O)Nc1ccc(F)cc1", "note": "(stereo not given)", "inhibition": "inconclusive: 3.1%"},
      {"smiles": "N#CC(C#N)=C1C=C2C=C(N3CCCCCC3)CCC2CC1", "note": "(stereo not given)", "inhibition": "active: 83.5%"},
      {"smiles": "Cc1cccc(C)c1NC(=O)C1CCCN1S(=O)(=O)c1ccccc1", "note": "(stereo not given)", "inhibition": "inactive: 13.1%"},
      {"smiles": "O=S(=O)(NCc1ccccc1)c1ccc(Br)c2nsnc12", "inhibition": "inactive: -1.1%"},
      {"smiles": "Cc1ccc(C2N=C(N)Nc3nc4ccccc4n32)cc1", "note": "(stereo not given)", "inhibition": "inactive: -8.3%"},
      {"smiles": "COc1ccc(Cc2nnc(SCC(=O)Nc3cc(Cl)ccc3C)[nH]c2=O)cc1", "inhibition": "inconclusive: -5.5%"},
      {"smiles": "Fc1ccc2c(c1)C(c1ccncc1)=NNC(c1cccnc1)=N2", "inhibition": "inconclusive: -13.6%"},
      {"smiles": "O=C(O)c1cccc(CSc2nnc(-c3ccco3)o2)c1", "inhibition": "inactive: -2.5%"},
      {"smiles": "Cc1nn(C2CCS(=O)(=O)C2)c(C)c1CN(C)C(=O)c1ccc(Cl)cc1", "note": "(stereo not given)", "inhibition": "inconclusive: -2.1%"},
      {"smiles": "Nc1oc2ccccc2c1C(=O)Cc1ccccc1O[C@@H]1O[C@H](CO)[C@@H](O)[C@H](O)[C@H]1O", "inhibition": "inactive: -2.9%"},
      {"smiles": "Cn1cnc(S(=O)(=O)Nc2cc(-c3ccc(Cl)cc3)nn2C)c1", "inhibition": "inconclusive: -7.9%"},
      {"smiles": "CCN(CC(=O)Nc1c(F)cccc1F)C(=O)c1cc([N+](=O)[O-])ccc1N1CCOCC1", "inhibition": "inconclusive: -4.6%"},
      {"smiles": "Cc1ccc(CSCC(=O)N(C)CC(=O)Nc2cccc(F)c2)cc1", "inhibition": "inconclusive: 7.2%"},
      {"smiles": "Cc1cccc(C)c1OCc1nnc2c3cnn(C)c3ncn12", "inhibition": "inconclusive: -20.1%"},
      {"smiles": "Cc1ccccc1S(=O)(=O)NC(=O)C1(C)CCN1C(=O)CCc1ccc(Cl)cc1Cl", "note": "(stereo not given)", "inhibition": "inactive: -3.8%"},
      {"smiles": "CC1(c2ccc(OC(F)F)cc2)NC(=O)N(CC(=O)Nc2ccc3[nH]c(=O)[nH]c3c2)C1=O", "note": "(stereo not given)", "inhibition": "inconclusive: 47.5%"},
      {"smiles": "O=C(CSc1nc2c(sc3ccccc32)c(=O)n1CCc1ccccc1)NCc1ccco1", "inhibition": "inconclusive: -6.6%"},
      {"smiles": "Cc1ccc(NC(=O)C(C)SCc2nc3sc4c(c3c(=O)[nH]2)CCCC4)nc1", "note": "(stereo not given)", "inhibition": "inconclusive: -3.7%"},
      {"smiles": "Cc1ccnc(NC(=O)C2CCN(S(=O)(=O)c3ccc(Cl)c(C(F)(F)F)c3)CC2)c1", "inhibition": "inconclusive: -5.7%"},
      {"smiles": "COc1cc(C(=O)OCC(=O)Nc2ccc(N3CCOCC3)cc2)ccc1OCC(C)C", "inhibition": "inconclusive: 2.2%"},
      {"smiles": "Cc1cc(C)cc(C(=O)Oc2coc(CSc3nnc(NC(=O)C4CC4)s3)cc2=O)c1", "inhibition": "inactive: -0.6%"},
      {"smiles": "Cc1ccc(S(=O)(=O)N(C)CC(=O)Nc2ncccc2C)cc1", "inhibition": "inactive: 2.8%"},
      {"smiles": "COc1ccccc1NC(=O)Cc1nnc(SCC(=O)Nc2nccs2)n1C", "inhibition": "inactive: 0.1%"},
      {"smiles": "CC(C)OCCCNC(=O)[C@H]1N2C(=O)c3ccccc3C2SC1(C)C", "note": "(stereo not given in full)", "inhibition": "inactive: 5.9%"},
      {"smiles": "O=C1C(Cl)=C(N2CCOCC2)C(=O)N1c1ccc(Br)cc1", "inhibition": "active: 30.4%"},
      {"smiles": "COc1ccc(OC)c2sc(N3CCN(C(=O)c4ccc([N+](=O)[O-])s4)CC3)nc12", "inhibition": "inconclusive: 3.1%"},
      {"smiles": "CCOC(=O)Cc1csc(NC(=O)CSc2nnc3ccccn23)n1", "inhibition": "inactive: -1.7%"},
      {"smiles": "COc1ccc2nc(NC(=O)CSC(C)C(=O)Nc3cc(C)on3)sc2c1", "note": "(stereo not given)", "inhibition": "inconclusive: -3.3%"},
      {"smiles": "C/C(=N/NS(=O)(=O)c1ccc(C)cc1C)c1c[nH]c2ccccc12", "inhibition": "inactive: -3.2%"},
      {"smiles": "Cc1ccc(N(CCC#N)C(=O)COC(=O)C2=COCCO2)cc1", "inhibition": "inconclusive: -2.7%"},
      {"smiles": "CC1(C)Cc2ccccc2C(/C(=N\\Nc2cccc(Cl)c2)C(N)=O)=N1", "inhibition": "inactive: -1.3%"},
      {"smiles": "CN(C)c1cc(NC(=O)CN2CCCC2)c2ccccc2n1", "inhibition": "inconclusive: -21.4%"},
      {"smiles": "Cn1c(=O)c2cc3ccccc3nc2n(C)c1=O", "inhibition": "active: 29.5%"},
      {"smiles": "COc1ccc(C(=O)c2sc3nc(C)cc(-c4cccs4)c3c2N)cc1OC", "inhibition": "active: 49%"},
      {"smiles": "Cn1c(CCNC(=O)c2ccco2)nc2cc(NS(=O)(=O)c3ccc(Cl)cc3)ccc21", "inhibition": "inactive: -1.7%"},
      {"smiles": "Cc1cc(Cl)c(S(=O)(=O)N2CCCCCC2)cc1OCC(=O)NC1CCCCC1", "inhibition": "inconclusive: -9.9%"}
    ]}
  ]
}
